Measured values reported in PubChem BioAssay AID624202 (National Center for Advancing Translational Sciences (NCATS), 2012).
Among all 380,000 compounds or so, about 4,000 (1.1%) were called active. The shares of active, inactive and inconclusive entries below differ from those in the screen. The call rests on the fitted dose curve; in most records, active means well fitted activation curve with a large enough effect; inconclusive means small, poorly fitted or top-dose-only effect; inactive means no such curve, though single readings can be large or run the other way. Where the call is inconclusive, the potency comes from a doubtful curve fit.

Assay: qHTS Assay to Identify Small Molecule Activators of BRCA1 Expression; further: nearly all actives have a fitted effect of over 80% in size
Settings: MCF7-BRCA1-FFLuc reporter, luminescence, 48 h; activation: at 46.1 µM (top of the series), scaled: vehicle 0%, 10 µM genistein 100% unless noted
Summary of the method: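 Activators of BRCA1 expression were detected as increased firefly luciferase luminescence in engineered MCF7 cells after 48 h compound incubation. Signals were scaled to genistein 10 microM as full activation.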
Potency means the concentration at half of the fitted maximal effect; tags describe the fitted curve by direction and shape.

Compound | Potency | activation
COc1cc(NC(=O)n2ncc3cc(Cl)ccc32)cc(OC)c1 | inconclusive: 10 µM [activator, partial curve, poor fit] | –
O=C(Nc1cccc(NC(=O)c2ccco2)c1)c1ccc2c(c1)OCCO2 | inconclusive: 20 µM [activator, single point] | –
O=C(Nc1ccccc1F)c1ccc2ncsc2c1 | inconclusive: 1.78 µM [activator, partial curve, poor fit] | –
Cc1cccc(-n2ncc3c(N(C)C4CCCCC4)ncnc32)c1 | – | inactive: -54.6%
COc1cc(OC)cc(C(=O)NCCOc2ccccc2)c1 | inconclusive: 10 µM [activator, partial curve, poor fit] | –
S=C(c1ccc(-c2ccc(Br)cc2)o1)N1CCOCC1 | inconclusive: 2 µM [activator, full curve, poor fit] | –
CC1CCCCN1C(=O)CSc1nnc(-c2c[nH]c3ccccc23)o1 (stereo unspecified) | inconclusive: 15.8 µM [activator, partial curve, poor fit] | –
CCC1CCc2c(sc(N)c2C(N)=O)C1 (stereo unspecified) | – | inactive: -15.2%
CC(=O)Nc1cccc(-c2nc3ccc(NC(C)=O)cc3s2)c1 | inconclusive: 2.24 µM [activator, full curve, poor fit] | –
CC(=O)Nc1cccc(OCC(=O)Nc2ccccc2)c1 | inconclusive: 11.2 µM [activator, partial curve, poor fit] | –
CN(Cc1ccccc1)c1ncnc2c1cnn2-c1ccccc1 | inconclusive: 2.24 µM [activator, partial curve, poor fit] | –
N#C/C(=C(/O)c1cccs1)c1nc2ccccc2[nH]1 | – | inactive: -6.18%
Cc1ccc(/C=C/C(=O)c2ccc(N3CCOCC3)cc2)s1 | inconclusive: 2.82 µM [activator, full curve, poor fit] | –
Cc1nc(CNC(=O)CC2C(=O)NCCN2Cc2ccoc2)nc2c1CCCC2 (stereo unspecified) | – | inactive: -12.9%
FC(F)(F)c1cnc(-c2cnc(-c3ccccn3)nc2)c(Cl)c1 | inconclusive: 0.631 µM [activator, full curve, poor fit] | –
Cc1nonc1NC(=O)CSc1nc2c(C)cccc2cc1C#N | inconclusive: 15.8 µM [activator, partial curve, poor fit] | –
CNc1nc(C)c(C(=O)OCc2ccccc2)s1 | active: 11.2 µM | –
Cc1cccc(C(=O)OCC(=O)c2ccc3c(c2)OCO3)c1O | active: 6.31 µM | –
C/C(=N\NC(=O)c1ccccc1)c1ccccc1F | inconclusive: 3.55 µM [activator, partial curve, poor fit] | –
O=C(Nc1ccc(Cc2ccncc2)cc1)c1ccc(S(=O)(=O)N2CCCC2)cc1 | – | inactive: -50.9%
O=C(Nc1cccc(-c2ccc(N3CCCCC3)nn2)c1)c1ccco1 | inconclusive: 2.82 µM [activator, full curve, poor fit] | –
COc1ccc(C(=O)CSc2cc(C)[nH]c(=O)n2)cc1 | inconclusive: 0.562 µM [activator, full curve, poor fit] | –
CN(CC(=O)NC(=O)Nc1ccccc1F)Cc1ccccc1F | inconclusive: 15.8 µM [activator, partial curve, poor fit] | –

Compound | Potency | activation
O=C(Nc1ccc([N+](=O)[O-])cc1)C(Cc1ccccc1)N1C(=O)c2cccc3cccc(c23)C1=O (stereo unspecified) | – | inconclusive: -58.5% [activator]
COc1cccc(NC(=O)N2CCc3ccccc3C2)c1 | active: 11.2 µM | –
COc1cc(Cl)ccc1OC1(C)CCN(Cc2ccccc2OC(F)F)C1 (stereo unspecified) | – | inactive: -17%
Cc1cc([N+](=O)[O-])ccc1NC(=O)/C=C/c1cccs1 | active: 5.62 µM | –
CCCC(=O)N(C)c1ccc(/C=C2\C=Cc3ccccc32)cc1 | inconclusive: 2 µM [activator, partial curve, poor fit] | –
OCCn1cnc2c(SCc3ccccc3)ncnc21 | inconclusive: 14.1 µM [activator, single point] | –
COc1ccccc1NC(=S)N/N=C/c1ccc(O)cc1 | active: 3.16 µM | –
CN(C)S(=O)(=O)N1CCc2ccc(NC(=O)c3ccc(C(F)(F)F)cc3)cc2C1 | – | inactive: 1.93%
O=C(NCCO)Nc1ccc2nsnc2c1 | inconclusive: 2.51 µM [activator, partial curve, poor fit] | –
O=C(N/N=C1\CCCc2ccccc21)c1cccc(Br)c1 | inconclusive: 12.6 µM [activator, single point] | –
COc1ccc(-c2cc(C(=O)NCCCN3CCCC3=O)c3ccccc3n2)cc1 | – | inactive: 1.85%
CCC[C@@H]1C[C@@]1(CCC)[C@@H](NP(=O)(c1ccccc1)c1ccccc1)c1ccc(C(=O)OC)cc1 | – | inactive: -91.9%
COc1ccc(-n2nc(N)c(C(N)=O)n2)cc1 | inconclusive: 22.4 µM [activator, single point] | –
COc1ccc(-c2nnc(-c3ccccc3)o2)cc1OC | inconclusive: 2.51 µM [activator, full curve, poor fit] | –
O=C(Cn1nc(-c2ccc(Cl)cc2)ccc1=O)NCCc1ccccc1 | – | inactive: -4.19%
Nc1c2c(nc3sc4c(c13)CCCCC4)CCCCC2 | inconclusive: 3.16 µM [activator, partial curve, poor fit] | –
COc1ccc(-c2ccc(C(=O)C3CC3)cc2)cc1 | inconclusive: 1.58 µM [activator, full curve, poor fit] | –
CN(CP(=O)(O)C(O)c1ccccc1)S(C)(=O)=O (stereo unspecified) | – | inactive: -9.05%
O=C(CSc1ccc(-c2cccs2)nn1)N1CCCCCC1 | active: 12.6 µM | –
COc1ccc2nc(N/C(N)=N/S(C)(=O)=O)nc(C)c2c1 | inconclusive: 15.8 µM [activator, partial curve, poor fit] | –
O=C(O)c1cccc(-n2cc(-c3cccc(C(F)(F)F)c3)cn2)c1 | – | inconclusive: 40.5% [activator]
CCNc1nc(N)nc(-c2cc(Cl)ccc2O)n1 | inconclusive: 2.51 µM [activator, partial curve, poor fit] | –
COc1cc(/C=N/NC(=O)c2cccc([N+](=O)[O-])c2)ccc1OCc1ccc(C)cc1 | inconclusive: 3.16 µM [activator, partial curve, poor fit] | –
